Some of the results follow.
Tests used:
HSkMC = human skeletal muscle cells; experiment: cytotoxicity call (relative viability < 0.9); conditions: 10 µM
HepG2 = experiment: cytotoxicity call (relative viability < 0.9); conditions: 10 µM
S. aureus RN4220 = experiment: growth inhibition call (relative growth <= 0.2); conditions: 50 µM

| Structure (SMILES) | cytotoxicity call (HSkMC) | cytotoxicity call (HepG2) | growth inhibition call (S. aureus RN4220) |
| --- | --- | --- | --- |
| C[C@@H]1CCCCO[C@@H](CN(C)Cc2ccc(Cl)c(Cl)c2)[C@@H](C)CN([C@H](C)CO)C(=O)c2cc(NS(=O)(=O)c3cccs3)ccc2O1 | inactive | inactive | inactive |
| Cc1[nH]c2ncnn2c(=O)c1CCC(=O)O | inactive | inactive | inactive |
| C[C@H](CO)N1C[C@H](C)[C@@H](CN(C)C)Oc2cc(C#CCN(C)C)ccc2S1(=O)=O | inactive | inactive | inactive |
| C[C@H]1CN([C@@H](C)CO)C(=O)c2cccc(NS(=O)(=O)c3cn(C)cn3)c2O[C@@H]1CN(C)S(=O)(=O)c1cccs1 | inactive | inactive | inactive |
| C[C@@H]1CCCCO[C@H](CN(C)S(=O)(=O)c2cccs2)[C@H](C)CN([C@@H](C)CO)C(=O)c2cc(NS(C)(=O)=O)ccc2O1 | inactive | inactive | inactive |
| CCS(=O)(=O)N1C[C@]2(CCN(CC2)C(=O)Nc2c(noc2C)C)c2c(n(c3cc(ccc23)OC)C)[C@H]1CO | inactive | inactive | inactive |
| C[C@@H]1CN([C@@H](C)CO)C(=O)c2cccc(NC(=O)c3ccncc3)c2O[C@@H]1CN(C)Cc1ccc(C(=O)O)cc1 | inactive | inactive | inactive |
| CC(=O)N1CCC[C@H]1C(=O)O | inactive | inactive | inactive |
| C[C@H](CO)N1C[C@H](C)[C@@H](CN(C)Cc2ccc(F)cc2)OCc2ccccc2-c2c(n(C)c3ccccc23)C1=O | inactive | inactive | inactive |
| COc1ccc(S(=O)(=O)Nc2cccc3c2O[C@@H](CN(C)Cc2ccc(Oc4ccccc4)cc2)[C@H](C)CN([C@@H](C)CO)C3=O)cc1 | inactive | inactive | inactive |
| CC(C)[Si](C#C[Si](C(C)C)(C(C)C)C(C)C)(O[C@H](C)c1cn(Cc2cccc(Cl)c2)nn1)C(C)C | inactive | inactive | inactive |
| CC(C)CC#Cc1ccc2c(c1)O[C@H](CN(C)CC1CCOCC1)[C@@H](C)CN([C@@H](C)CO)S2(=O)=O | inactive | inactive | inactive |
| C[C@@H]1CN([C@@H](C)CO)C(=O)c2cccc(NC(=O)c3ccc(-c4nccs4)cc3)c2O[C@@H]1CN(C)C(=O)Nc1cccc2ccccc12 | inactive | inactive | inactive |
| C[C@@H]1CN([C@H](C)CO)C(=O)c2cccc(NC(=O)Nc3ccc(F)cc3)c2O[C@@H]1CN(C)C(=O)Nc1cccc2ccccc12 | inactive | inactive | inactive |
| COc1ccc(NC(=O)N(C)C[C@H]2OCCCC[C@@H](C)Oc3ccc(NC(=O)Nc4c(C)noc4C)cc3C(=O)N([C@@H](C)CO)C[C@H]2C)cc1 | inactive | inactive | inactive |
| COc1ccc(NC(=O)N(C)C[C@H]2Oc3ncc(C#CCN(C)C)cc3C(=O)N([C@@H](C)CO)C[C@H]2C)cc1 | inactive | inactive | inactive |
| O=C(C[C@H]1C[C@@H]2c3cc(NC(=O)C4CCOCC4)ccc3O[C@@H]2[C@H](CO)O1)NCc1ccc2c(c1)OCO2 | inactive | inactive | inactive |
| C[C@H]1CN([C@@H](C)CO)S(=O)(=O)c2ccc(-c3ccccc3F)cc2O[C@H]1CN(C)S(C)(=O)=O | inactive | inactive | inactive |
| COC(=O)[C@H]1NCCS1 | inactive | inactive | inactive |

| Structure (SMILES) | cytotoxicity call (HSkMC) | cytotoxicity call (HepG2) | growth inhibition call (S. aureus RN4220) |
| --- | --- | --- | --- |
| CC(C)NCC(O)COc1ccc(COCCOC(C)C)cc1.O=C(O)C=CC(=O)O (stereo unspecified) | inactive | inactive | inactive |
| C[C@@H]1CN([C@@H](C)CO)C(=O)Cc2cc(NC(=O)CCN3CCOCC3)ccc2O[C@H]1CN(C)C(=O)Nc1ccc(F)cc1 | inactive | inactive | inactive |
| COc1ccc(NC(=O)Nc2ccc3c(c2)C(=O)N([C@H](C)CO)C[C@@H](C)[C@@H](CN(C)S(=O)(=O)c2cn(C)cn2)O3)cc1 | inactive | inactive | inactive |
| C[C@@H]1CCCCO[C@H](CN(C)C(=O)c2ccncc2)[C@H](C)CN([C@H](C)CO)C(=O)c2cc(NS(=O)(=O)c3cn(C)cn3)ccc2O1 | inactive | inactive | inactive |
| C[C@H]1CN([C@@H](C)CO)C(=O)c2cc(C3=CCCC3)cnc2O[C@H]1CN(C)S(=O)(=O)c1cn(C)cn1 | inactive | inactive | inactive |
| O=C(C[C@H]1C[C@@H]2c3cc(NC(=O)c4ccc5c(c4)OCO5)ccc3O[C@@H]2[C@H](CO)O1)NCc1cccnc1 | inactive | inactive | inactive |
| CC(C)NC(=O)N(C)C[C@H]1Oc2ccc(NC(=O)Cn3cnnn3)cc2C(=O)N([C@H](C)CO)C[C@H]1C | inactive | inactive | inactive |
| Cc1noc(C)c1NC(=O)N(C)C[C@H]1Oc2ccc(NS(=O)(=O)c3ccccc3)cc2CC(=O)N([C@H](C)CO)C[C@@H]1C | inactive | inactive | inactive |
| C[C@@H]1CN([C@@H](C)CO)C(=O)c2cc(NS(=O)(=O)c3cn(C)cn3)ccc2O[C@H]1CN(C)S(=O)(=O)c1ccc(F)cc1 | inactive | inactive | inactive |
| C[C@H]1CN([C@@H](C)CO)C(=O)c2cc(NC(=O)C3CC3)ccc2O[C@H]1CN(C)S(=O)(=O)c1cccs1 | inactive | inactive | inactive |
| O=C(C[C@H]1C=C[C@H](NC(=O)c2cnccn2)[C@@H](CO)O1)NCc1ccccc1F | inactive | inactive | inactive |
| CC(C)NC(=O)N(C)C[C@@H]1Oc2ccc(NS(=O)(=O)c3cn(C)cn3)cc2C(=O)N([C@H](C)CO)C[C@@H]1C | inactive | inactive | inactive |
| Cc1ccc(S(=O)(=O)Nc2ccc3c(c2)CC(=O)N([C@H](C)CO)C[C@H](C)[C@H](CN(C)Cc2ccncc2)O3)cc1 | inactive | inactive | inactive |
| C[C@H](CO)N1C[C@H](C)[C@H](CN(C)Cc2cccc(C(=O)O)c2)Oc2ncc(C#CCN(C)C)cc2C1=O | inactive | inactive | inactive |
| C[C@@H]1CN([C@@H](C)CO)C(=O)c2c(c3ccccc3n2C)-c2ccccc2CO[C@H]1CN(C)CC1CCCCC1 | inactive | inactive | inactive |
| C[C@@H]1CN([C@H](C)CO)C(=O)c2cc(NS(=O)(=O)c3cccs3)ccc2O[C@H]1CN(C)Cc1ccc(Oc2ccccc2)cc1 | inactive | inactive | inactive |
| CO[C@@H]1CN(C)C(=O)c2ccc(NC(=O)Nc3ccccc3F)cc2OC[C@@H](C)N(Cc2ccccc2C(=O)O)C[C@H]1C | inactive | inactive | inactive |
| NC(=O)CSCC(=O)Nc1ccccc1F | inactive | inactive | inactive |
| CCOc1ccc(-n2c([C@@H](C)N(Cc3cccnc3)C(=O)Cc3ccc(OC(F)(F)F)cc3)nc3ncccc3c2=O)cc1 | inactive | inactive | inactive |

| Structure (SMILES) | cytotoxicity call (HSkMC) | cytotoxicity call (HepG2) | growth inhibition call (S. aureus RN4220) |
| --- | --- | --- | --- |
| COS(=O)(=O)[O-].COc1cc(N)cn[n+]1-c1ccccc1 | inactive | active | inactive |
| c1ccc(Nc2ncnc3sc(-c4ccccc4)cc23)cc1 | inactive | inactive | inactive |
| CN1CCN2CCN(C(=O)c3cccc(N)c3)C[C@@H]2C1=O | inactive | inactive | inactive |
| COc1ccc(S(=O)(=O)N(C)C[C@H]2Oc3ccc(NC(=O)NC(C)C)cc3CC(=O)N([C@@H](C)CO)C[C@@H]2C)cc1 | inactive | inactive | inactive |
| COc1ccc(NC(=O)N(C)C[C@H]2Oc3ncc(C#CC(C)C)cc3C(=O)N([C@@H](C)CO)C[C@H]2C)cc1 | inactive | inactive | inactive |
| Cc1noc(C)c1S(=O)(=O)Nc1ccc2c(c1)C(=O)N([C@@H](C)CO)C[C@@H](C)[C@H](CN(C)Cc1ccccc1)O2 | inactive | inactive | inactive |
| C[C@@H]1CCCCO[C@@H](CN(C)S(=O)(=O)c2ccc(Cl)cc2)[C@H](C)CN([C@@H](C)CO)C(=O)c2cc(NS(=O)(=O)c3cccs3)ccc2O1 | inactive | active | inactive |
| O=C/C=C/c1ccc(Cl)cc1 | inactive | inactive | inactive |
| C[C@@H]1CN([C@H](C)CO)C(=O)c2cc(NC(=O)CCCCCC(=O)Nc3ccccc3N)ccc2O[C@@H]1CN(C)Cc1ccc(C(F)(F)F)cc1 | inactive | inactive | inactive |
| CC(C)CC#Cc1ccc2c(c1)O[C@H](CN(C)S(=O)(=O)c1ccc(F)cc1)[C@@H](C)CN([C@@H](C)CO)S2(=O)=O | inactive | inactive | inactive |
| COc1cccc(S(=O)(=O)Nc2ccc3c(c2)C(=O)N(C)C[C@H](OC)[C@@H](C)CN(C(=O)Cc2cccnc2)[C@@H](C)CO3)c1 | inactive | inactive | inactive |
| C[C@@H]1CN([C@@H](C)CO)C(=O)c2cc(NC(=O)Cc3ccccc3)ccc2O[C@@H](C)CCCCO[C@H]1CN(C)Cc1ccccc1 | inactive | inactive | inactive |
| Cc1noc(C)c1NC(=O)Nc1ccc2c(c1)CC(=O)N([C@H](C)CO)C[C@H](C)[C@H](CN(C)Cc1ccc(-c3ccccc3)cc1)O2 | inactive | inactive | inactive |
| C[C@@H]1CCCCO[C@H](CN(C)C(=O)NC2CCCCC2)[C@H](C)CN([C@@H](C)CO)C(=O)c2cc(NC(=O)Nc3cccc4ccccc34)ccc2O1 | inactive | inactive | inactive |
| COc1ccc(NC(=O)Nc2ccc3c(c2)[C@@H]2C[C@@H](CC(=O)NCc4ccccn4)O[C@H](CO)[C@@H]2O3)cc1 | inactive | inactive | inactive |
| Cc1nonc1CO | inactive | inactive | inactive |
| C[C@@H]1CN([C@H](C)CO)C(=O)c2cc(NS(=O)(=O)c3ccc(Cl)cc3)ccc2O[C@@H](C)CCCCO[C@H]1CN(C)C(=O)Nc1ccc2c(c1)OCO2 | inactive | inactive | inactive |
| C[C@@H]1CN([C@@H](C)CO)C(=O)Cc2cc(NS(=O)(=O)c3cn(C)cn3)ccc2O[C@H]1CN(C)C(=O)Nc1ccccc1 | inactive | inactive | inactive |
| C[C@@H]1CCCCO[C@H](CN(C)C(=O)Nc2ccc(C(F)(F)F)cc2)[C@@H](C)CN([C@@H](C)CO)C(=O)c2cc(NC(=O)NC3CCCCC3)ccc2O1 | inactive | inactive | inactive |

From the antibiotic and cytotoxicity screens of Wong et al. (2023)
